Test results reported in the antibiotic and cytotoxicity screens of Wong et al. (2023).
The other results are listed elsewhere or left out.

Columns and labels:
HSkMC = human skeletal muscle cells; test: cytotoxicity call (relative viability < 0.9); conditions: 10 µM
HepG2 = test: cytotoxicity call (relative viability < 0.9); conditions: 10 µM
S. aureus RN4220 = test: growth inhibition call (relative growth <= 0.2); conditions: 50 µM

| Structure (SMILES) | cytotoxicity call (HSkMC) | cytotoxicity call (HepG2) | growth inhibition call (S. aureus RN4220) |
| --- | --- | --- | --- |
| CCNC(=O)C[C@H]1CC[C@@H](NC(=O)C2CC2)[C@@H](CO)O1 | inactive | inactive | inactive |
| C[C@H](CO)N1C[C@H](C)[C@@H](CN(C)Cc2ccc(-c3ccccc3)cc2)Oc2ccc(NC(=O)CCC(F)(F)F)cc2CC1=O | inactive | inactive | inactive |
| COc1ccc(CNC(=O)C[C@H]2CC[C@@H]3[C@H](COc4ccc(NC(=O)C(C)C)cc4C(=O)N3C)O2)cc1 | inactive | inactive | inactive |
| COc1ccc(NC(=O)Nc2ccc3c(c2)C(=O)N([C@H](C)CO)C[C@@H](C)[C@H](CN(C)Cc2ccccc2)OCCCC[C@H](C)O3)cc1 | inactive | active | inactive |
| COCCNC(=O)C[C@H]1CC[C@@H]2[C@H](COC[C@H](O)CN2C(=O)Nc2ccc3c(c2)OCO3)O1 | inactive | inactive | inactive |
| CN1C(=O)c2cc(NC(=O)c3cscn3)ccc2OC[C@H]2O[C@H](CC(=O)N3CCOCC3)CC[C@H]21 | inactive | inactive | inactive |
| C[C@@H]1CN([C@H](C)CO)C(=O)c2cc(NC(=O)C3CCCCC3)ccc2O[C@@H](C)CCCCO[C@@H]1CN(C)Cc1ccc(Cl)c(Cl)c1 | inactive | inactive | inactive |
